Results from PubChem BioAssay AID504332 (National Center for Advancing Translational Sciences (NCATS), 2011).
Among all 350,000 compounds or so, about 31,000 (8.9%) were called active. Inconclusive means that the source gave no clear call. Such entries were picked first, then a sample of the others. The call rests on the fitted dose curve; in most records, active means well fitted inhibition curve with a large enough effect; inconclusive means small, poorly fitted or top-dose-only effect; inactive means no such curve, though single readings can be large or run the other way. Potencies of inconclusive entries are doubtful fits and often do not repeat.

Target: Histone-lysine N-methyltransferase EHMT2 (Homo sapiens) (UniProt Q96KQ7)
Assay: qHTS Assay for Inhibitors of Histone Lysine Methyltransferase G9a; further: nearly all actives have a fitted effect of over 75% in size
Details: G9a H3K9 monomethylation, AlphaScreen, 2 h; activity, negative = inhibition: at 59 µM (top of the series) unless noted
Summary of the method: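 Quantitative HTS format: methyltransferase activity on a biotin-tagged H3K9 peptide is measured by AlphaScreen, using a rabbit anti-monomethyl-H3K9 antibody with streptavidin donor and anti-IgG acceptor beads. Final levels are 20 nM enzyme, 500 nM peptide, 20 uM SAM; 2 h RT.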
On the % scale 0 is the no-effect control and ±100 the full control effect; potency means the concentration at half of the fitted maximal effect; tags describe the fitted curve by direction and shape.

Chain of UniProt Q96KQ7 (Q96KQ7 whole entry, looked up): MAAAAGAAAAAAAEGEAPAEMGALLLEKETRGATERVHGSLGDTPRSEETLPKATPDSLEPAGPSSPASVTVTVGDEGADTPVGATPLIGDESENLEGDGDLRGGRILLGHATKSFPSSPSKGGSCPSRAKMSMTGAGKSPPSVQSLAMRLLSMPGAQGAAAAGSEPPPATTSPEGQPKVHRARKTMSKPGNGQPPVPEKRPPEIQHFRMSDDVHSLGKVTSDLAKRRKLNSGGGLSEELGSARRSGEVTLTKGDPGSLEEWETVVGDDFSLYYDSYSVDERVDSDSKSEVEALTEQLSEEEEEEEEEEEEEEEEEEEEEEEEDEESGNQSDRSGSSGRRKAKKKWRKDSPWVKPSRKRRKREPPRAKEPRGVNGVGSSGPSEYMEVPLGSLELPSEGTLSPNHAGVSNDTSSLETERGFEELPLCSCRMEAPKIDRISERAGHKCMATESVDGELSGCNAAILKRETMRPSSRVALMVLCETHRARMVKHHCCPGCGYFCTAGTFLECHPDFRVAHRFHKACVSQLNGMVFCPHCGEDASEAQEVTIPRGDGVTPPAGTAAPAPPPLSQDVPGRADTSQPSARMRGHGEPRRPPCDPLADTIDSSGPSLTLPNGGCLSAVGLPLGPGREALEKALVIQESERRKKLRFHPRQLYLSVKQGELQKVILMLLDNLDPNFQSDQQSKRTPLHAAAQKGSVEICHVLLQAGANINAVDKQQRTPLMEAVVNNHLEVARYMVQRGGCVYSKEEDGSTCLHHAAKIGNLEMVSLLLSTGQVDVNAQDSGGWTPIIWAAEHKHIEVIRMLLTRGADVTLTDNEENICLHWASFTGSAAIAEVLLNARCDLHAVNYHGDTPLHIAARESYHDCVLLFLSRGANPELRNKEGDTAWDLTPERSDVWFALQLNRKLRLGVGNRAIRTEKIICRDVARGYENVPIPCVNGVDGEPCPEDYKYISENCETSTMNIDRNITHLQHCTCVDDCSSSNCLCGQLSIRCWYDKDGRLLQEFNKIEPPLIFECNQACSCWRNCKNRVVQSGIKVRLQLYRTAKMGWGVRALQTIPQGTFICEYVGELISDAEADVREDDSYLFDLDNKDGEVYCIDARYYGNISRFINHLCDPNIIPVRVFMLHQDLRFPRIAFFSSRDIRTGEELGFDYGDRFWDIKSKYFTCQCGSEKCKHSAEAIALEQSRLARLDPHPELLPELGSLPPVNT

Compound | Potency | activity, negative = inhibition
COc1ccc(NC(=O)N(CCC(C)C)C(C)c2cccs2)c(OC)c1 (stereo not given) | inconclusive: 15.8 µM [inhibitor, partial curve, poor fit] | –
COc1ccc(OC)c(C2C(C(=O)Nc3ccccc3OC)=C(C)Nc3nc(CCCO)nn32)c1 (stereo not given) | inconclusive: 39.8 µM [inhibitor, partial curve, poor fit] | –
CCCOC(=O)Nc1ccc(N2CCCCC2)cc1 | active: 8.91 µM | –
O=C(CSc1nncs1)NNC(=O)c1ccco1 | – | inactive: -7.98% [at 12.7 µM]
O=C(CSc1nnnn1-c1cccc2c1CCCC2)N1CCCC1 | – | inactive: -13.3%
COc1cccc(-n2c(COc3ccc(C)cc3)nnc2SCC(=O)O)c1 | inconclusive: 79.4 µM [inhibitor, single point] | –
O=C(NCc1ccco1)c1ccc2c(c1)N(Cc1ccccc1)C(=O)c1ccccc1S2(=O)=O | – | inactive: -25.7%
Cc1ccc[n+](CC(=O)c2cc3ccccc3oc2=O)c1 | inconclusive: 89.1 µM [inhibitor, single point] | –
COCCNc1ncnc2c1c(-c1ccccc1)cn2-c1ccc(C)c(Cl)c1 | – | inactive: 2.41%
CN1CCc2c(sc3c2c(=O)n(-c2ccccc2)c2nncn32)C1 | inconclusive: 3.55 µM [inhibitor, single point] | –
O=C1C(=O)N2C(=C1C(=O)N1CCCCCC1)c1ccccc1CC21CCCC1 | inconclusive: 8.91 µM [inhibitor, single point] | –
CC1(c2ccc3noc(-c4ccc(Cl)cc4)c3c2)OCCO1 | – | inactive: -46.7% [at 102 µM]
CCN1/C(=C/C=C/C=C/c2sc3ccccc3[n+]2CC)Sc2ccccc21 | active: 28.2 µM | –
OC1CCN(C(=S)Nc2ccc(Nc3ccccc3)cc2)CC1 | – | inconclusive: -96.1% [inhibitor]
Cc1ccccc1NC(=S)Nc1ccc2cn[nH]c2c1 | inconclusive: 50.1 µM [inhibitor, partial curve] | –
NCc1nc2cccnc2n1Cc1ccccc1Cl | inconclusive: 3.16 µM [inhibitor, full curve, poor fit] | –
COc1ccc(C(C)=O)cc1CSC(=N)N | inconclusive: 79.4 µM [inhibitor, single point] | –
CCOc1ccc(C(C)=O)cc1NC(=O)/C=C\C(=O)O | inconclusive: 79.4 µM [inhibitor, single point] | –
O=C1NC(=O)/C(=C/c2ccc3c(c2)OC(F)(F)O3)S1 | – | inactive: 55.2%
COc1ccc(C2=NOC3(CC(=O)N(c4ccc5ccccc5c4)C3=O)C2)c(OC)c1 (stereo not given) | inconclusive: 31.6 µM [inhibitor, partial curve, poor fit] | –
COc1ccc(N2CCN(C3CC(=O)N(Cc4ccccc4)C3=O)CC2)cc1 (stereo not given) | inconclusive: 44.7 µM [inhibitor, partial curve, poor fit] | –
Cc1cc(C(=O)OCC(=O)c2ccc3c(c2)OCCO3)c(C)o1 | inconclusive: 50.1 µM [inhibitor, partial curve] | –
Cc1cccc(C)c1Nc1nnc(SCC(=O)NCc2ccco2)s1 | inconclusive: 31.6 µM [inhibitor, single point] | –

Compound | Potency | activity, negative = inhibition
COC(=O)c1c(C)oc2c1cc(NS(=O)(=O)c1cccs1)c1ccccc12 | inconclusive: 28.2 µM [inhibitor, single point] | –
COc1ccc(C(CNC(=O)c2cccc(S(=O)(=O)Nc3cccc(C)c3)c2)N2CCOCC2)cc1 (stereo not given) | inconclusive: 50.1 µM [inhibitor, partial curve, poor fit] | –
NC(=O)c1c(NC(=S)Nc2ccccc2)sc2c1CCCC2 | active: 6.31 µM | –
CCOc1ccc(N2CC(C(=O)Nc3nnc(Cc4ccc(OC)c(OC)c4)s3)CC2=O)cc1 (stereo not given) | inconclusive: 89.1 µM [inhibitor, single point] | –
Cc1ccc(NC(=O)CNC(=O)Cc2cccc3ccccc23)c(O)c1 | – | inactive: -28.8% [at 102 µM]
CC1CCN(S(=O)(=O)c2cccc(C(=O)Nc3ccccn3)c2)CC1 | inconclusive: 15.8 µM [inhibitor, partial curve] | –
CC(=O)Nc1sc(C)c(C)c1C(=O)OCC(=O)NC(C)c1ccccc1 (stereo not given) | inconclusive: 79.4 µM [inhibitor, partial curve, poor fit] | –
CCC(=O)/C=C1/Sc2ccccc2N1CC | active: 8.91 µM | –
COC(=O)c1ccc2c(=O)n(CCCN3CCOCC3)c(=S)[nH]c2c1 | inconclusive: 11.2 µM [inhibitor, single point] | –
CN1CCN(C(c2cccc(Cl)c2)c2ccccc2Cl)CC1 (stereo not given) | inconclusive: 35.5 µM [inhibitor, single point] | –
O=C(Nc1cccnc1N1CCOCC1)c1cccs1 | – | inactive: 25.8% [at 102 µM]
CCOc1ccc(NC(=O)Cn2c3ncccc3c(=O)n2-c2ccc(CC)cc2)cc1 | – | inactive: 0.138%
CCc1ccc(C2CC(=O)NC(SCC(=O)OC(C)C)=C2C#N)cc1 (stereo not given) | inconclusive: 89.1 µM [inhibitor, single point] | –
COc1ccc(CS(=O)(=O)CC(C)(O)c2ccccc2Cl)cc1 (stereo not given) | inconclusive: 39.8 µM [inhibitor, single point] | –
Cn1c(/C=C/c2ccc(Br)cc2)nc2ccccc2c1=O | – | inactive: -6.87% [at 102 µM]
Cc1cc(C)cc(Nc2cnn(C34CC5CC(CC(CC(=O)O)(C5)C3)C4)c(=O)c2Cl)c1 | inconclusive: 11.2 µM [inhibitor, single point] | –
Cc1ccc(NCc2ccc(Cl)nc2)c(NCc2ccc(Cl)nc2)c1 | active: 35.5 µM | –
CCn1c(=O)c(C(=O)CN(C)CC(=O)Nc2ccccc2Br)c(N)n(Cc2ccccc2)c1=O | inconclusive: 56.2 µM [inhibitor, partial curve] | –
Cc1ccc2nc(NCc3ccccc3)c(C#N)cc2c1 | – | inactive: 18.5% [at 102 µM]
Cc1ccccc1S(=O)Cc1ccc(C(=O)N2CCN(c3cccc(C)c3C)CC2)o1 (stereo not given) | inconclusive: 8.91 µM [inhibitor, partial curve] | –
O=S(=O)(c1ccc(NC(=S)NCc2ccco2)cc1)N1CCCC1 | inconclusive: 39.8 µM [inhibitor, single point] | –
Cc1ccccc1NC(=O)c1c(C)[nH]c(=S)c(C#N)c1-c1ccc(Cl)cc1 | inconclusive: 100 µM [inhibitor, single point] | –
